# According to PubChem BioAssay AID493208 (National Center for Advancing Translational Sciences (NCATS), 2011):
# Out of some 44,000 compounds screened, about 340 (0.77%) were called active. About 5% were inconclusive and are not listed. Calls follow the shape of the dose curve; as a rule, active = well fitted inhibition curve with a large enough effect; inconclusive = small, poorly fitted or top-dose-only effect; inactive = flat fitted curve, though single readings scatter. The list shows a part of the results.
# Assay: Acumen qHTS Assay for Inhibitors of the mTORC1 Signaling Pathway in MEF (Tsc2-/-, p53-/-) Cells: Sytravon;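 also: plate controls were DMSO for no effect and rapamycin for full effect; nearly all actives have a fitted effect of over 50% in size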
# Settings: phospho-rpS6 immunofluorescence/PI, 24 h; series mostly up to 38.3 µM; activity change, negative = inhibition: at the top concentration
# Summary of the method: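 Readout is phospho-S6 Alexa 488 signal normalized to PI per well, reported as % active cells with thresholds set from rapamycin (7.5 nM) and DMSO controls. Cells: Tsc2-/-, p53-/- MEFs, 24 hrs compound at 37 C; PI cell number serves as viability.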
row,SMILES,"activity change, negative = inhibition"
1,Cc1cccc(CSc2nnc3[nH]c(=O)cc(-c4ccccc4)n23)c1,inactive: -2.16%
2,COc1cc(-c2nc3ccc(Cl)cn3c2Nc2ccc3c(c2)OCCO3)ccc1O,inactive: -22.1%
3,CCOc1ccc(NC(=O)N2CCC(N3CCCCC3)CC2)cc1,inactive: -2.02%
4,Cc1cc(NC(=O)C2CCCN(S(=O)(=O)c3cccc4nsnc34)C2)ccc1Br (configuration not stated),inactive: -7.94%
5,O=C(Nc1cc(Cl)cc(Cl)c1)c1ccc(F)c(S(=O)(=O)N2CCN(c3ccccc3F)CC2)c1,inactive: 6.95%
6,Cc1ccc(NC(=O)COc2ccc3oc4c(c3c2)CCCC4)cc1C,inactive: 0.0556%
7,Cc1ccc(CN2COc3c(Cl)cc4c(-c5ccccc5)cc(=O)oc4c3C2)cc1,inactive: -0.482%
8,O=C(CN1C(=O)COc2ccc(S(=O)(=O)N3CCOCC3)cc21)N1CCN(c2ccccc2F)CC1,inactive: 0.0186%
9,Cc1ccc(NC(=O)C(=O)NCC2(c3ccccc3)CCCC2)cc1C,inactive: -3.03%
10,CCc1cccc(NC(=O)c2c(C)oc3nc(C)nc(N4CCCC4)c23)c1,inactive: 4.52%
11,CCCOc1ccc(CNC(=O)CN2C(=O)c3cccnc3Oc3ccc(C)cc32)cc1,inactive: -19.4%
12,O=C(NCCCO)c1nn(-c2ccc(Cl)cc2)nc1CO,inactive: 2.74%
13,COC(=O)C1CCN(c2csc3ccc(Cl)cc3c2=O)CC1,inactive: -26.4%
14,CCc1ccc(OCc2cc(=O)n3cc(C)sc3n2)cc1,inactive: 2.37%
15,CCOc1ccc2oc(=O)cc(CN3CCN(c4ccccc4OC)CC3)c2c1,inactive: -1.12%
16,COc1cc(OC)c(OC)cc1CNCCCSc1nnnn1C,inactive: -1.06%
17,COc1cccc(NC(=O)Cn2c(=O)n(CCc3ccc(OC)c(OC)c3)c(=O)c3ccccc32)c1,inactive: 0.152%
18,COc1ccc(C(=O)N(Cc2cc(OC)c(OC)c(OC)c2)C2CCS(=O)(=O)C2)cc1Cl (configuration not stated),inactive: -2.54%
19,CCc1ccc(NCc2cc3ccc(OC)cc3n(CC(=O)Nc3ccc(C)c(Cl)c3)c2=O)cc1,inactive: -3.34%
20,Cc1ccc(C(=O)c2oc3ccccc3c2NC(=O)Cc2ccccc2)cc1,inactive: 0.0162%
21,Cn1cc(S(=O)(=O)N2CCOCC2)cc1C(=O)Nc1cccc(C#N)c1,inactive: -1.13%

row,SMILES,"activity change, negative = inhibition"
1,CC(C)Oc1ccc(CNC(=O)Cn2nc(N3CCN(c4ccccc4)CC3)ccc2=O)cc1,inactive: 0%
2,CCC(=O)N1CCc2cc(OC)c(OC)cc2C1COc1ccc2c(C)cc(=O)oc2c1 (configuration not stated),inactive: 1.87%
3,COc1ccc(C2c3c(n(C)c4ccccc34)C(=O)N2CC(=O)Nc2ccc(F)cc2)cc1 (configuration not stated),inactive: -7.12%
4,COCCNC(=O)C1=CC(c2ccc3c(c2)OCO3)=NS(=O)(=O)N1C,inactive: 1.96%
5,CC(C)c1ccc(CNc2n[nH]c(-c3ccco3)n2)cc1,inactive: -0.506%
6,Cc1ccc(CSc2nc(-c3ccccc3C)nc3c2Cc2c(CO)cnc(C)c2O3)cc1,inactive: 2.37%
7,COc1ccc(-c2ccc(=O)n(CC(=O)Nc3ccc(OC)c(OC)c3)n2)cc1,inactive: -8.98%
8,CCOc1ccc(-c2nc(SCC(=O)Nc3cc(F)ccc3F)n3[nH]c(=O)cc3n2)cc1,inactive: 6.33%
9,Cn1ncc2c(NCc3ccc(F)cc3)ncnc21,inactive: -1.25%
10,CCOC(=O)c1c(S(=O)(=O)N2CCC(C(=O)N3CCN(c4ccc(F)cc4)CC3)CC2)c(C)n(C)c1C,inactive: -0.0823%
11,CCn1nnc2cc(C(=O)Nc3ccc(Br)cc3F)ccc21,inactive: -11.1%
12,Cn1c(=O)c2c(SCC(=O)N3CCc4ccccc43)nc(-c3ccc(Cl)cc3)nc2n(C)c1=O,inactive: -5.18%
13,Cc1ccc(NC(=O)C2CCCN2S(=O)(=O)c2ccc3c(c2)n(C)c(=O)c(=O)n3C)cc1C (configuration not stated),inactive: -18.3%
14,O=C1N(Cc2ccccc2)c2ccccc2C1(O)c1c[nH]c2ccccc12 (configuration not stated),inactive: 5.28%
15,O=C(Nc1ccc(C(F)(F)F)cc1)C(Cc1ccccc1)n1cccc1 (configuration not stated),inactive: -10%
16,O=C(NCCCN1CCN(c2ccccc2F)CC1)c1ccc2nc(N3CCCCC3)sc2c1,inactive: 2.84%
17,CC(=O)Nc1cccc(C(=O)NCc2ccc3c(c2)CCN3C(=O)c2ccc(F)cc2)c1,inactive: -0.996%
18,CCN(C(=O)C1CCCN(c2ncnc3c2nc2n3CCCCC2)C1)c1cccc(Cl)c1 (configuration not stated),inactive: -7.9%
19,Cc1cc2c(cc3c(SCc4ccccc4Cl)nnc(C)n32)o1,inactive: 5.67%
20,COc1cccc(NS(=O)(=O)c2ccc3[nH]cc(C(=O)N4CCCC4)c(=O)c3c2)c1,inactive: -0.0737%
21,Cc1c(CCNC(=O)C(C)(C)C)sc2nc(-c3ccc(F)cc3)nn12,inactive: -1.93%

row,SMILES,"activity change, negative = inhibition"
1,COc1ccccc1NC(=O)C1=C(C)Nc2nc(SCc3ccccc3)nn2C1c1ccncc1 (configuration not stated),inactive: -36.4%
2,COc1cc(OC)c(N(C)C(=O)c2sc3nc4n(c(=O)c3c2C)CCCCC4)cc1Cl,inactive: -0.0225%
3,Cc1cc(Nc2cc(F)ccc2C)nc(-n2nc(C)cc2C)n1,inactive: -17%
4,COc1cc(NC(=O)Cn2nc3c(cc2=O)CC(C)CC3)cc(OC)c1OC (configuration not stated),inactive: 2.44%
5,CC(C)N(Cc1ccccc1)C(=O)CN1C(=O)CSc2ccc(S(=O)(=O)N3CCCC3)cc21,inactive: 2.37%
6,Cc1c(C(=O)N2CCC(C)CC2)c(S(=O)(=O)Nc2ccc(OC(F)(F)F)cc2)c(C)n1C,inactive: 0%
7,CN(C)S(=O)(=O)N(CC(=O)NCCSc1ccccc1)c1ccccc1,inactive: 2.23%
8,CCn1cc(C(=O)N2CCN(c3ccc(OC)cc3)CC2)c(=O)c2cc(S(=O)(=O)N3CCOCC3)ccc21,inactive: -5.36%
9,COc1ccc(OCC(=O)Nc2ccc(-c3nc4cc(C)c(C)cc4o3)cc2)cc1,inactive: -1.44%
10,COc1ccc2[nH]cc(CCN=C(NC(=O)c3ccccc3C)Nc3nc(C)cc(C)n3)c2c1,inactive: 1.22%
11,O=C(Cn1ncc2c3ccccc3n(Cc3ccc(F)cc3)c2c1=O)NCCCN1CCCCC1,inactive: -7.53%
12,N#Cc1c[nH]n2c(NC3CCCC3)c(-c3ccc(Cl)cc3)nc12,inactive: -11.7%
13,CCc1ccc(NC(=O)C(=O)NCCc2sc3nc(-c4ccc(OC)cc4)nn3c2C)cc1,inactive: 0.358%
14,Cc1ccc(CNc2nc3ccc(C)cc3n3nnnc23)cc1,inactive: -3.05%
15,O=C(CCS(=O)(=O)c1cccc2nonc12)Nc1ccc(Br)cc1,inactive: -5.52%
16,Cc1ccc(NS(=O)(=O)c2ccc(-c3cc(C)no3)cc2)c(Br)c1,inactive: -5.77%
17,CCOc1ccccc1NC(=O)N1CCC2(CC1)Oc1ccccc1C(=O)N2Cc1ccccc1F,inactive: -15%
18,CC1=C(C(=O)Nc2ccccc2)C(c2ccc(O)cc2)n2nc(SCc3ccccc3)nc2N1 (configuration not stated),inactive: 2.78%
19,COc1ccc(Cl)cc1NC(=O)CCn1c(=O)oc2ccccc21,inactive: 2.51%
20,O=c1[nH]c(SCc2ccc([N+](=O)[O-])cc2)nc2c1CCCC2,inactive: 0.801%
